Data published in PubChem BioAssay AID588591 (National Center for Advancing Translational Sciences (NCATS), 2011).
Where “and” joins values, the source holds several entries; their conditions need not be identical. Equal entries are not always repeated. About 4,700 (1.2%) of roughly 390,000 compounds were called active. Inconclusive means that the source gave no clear call. Such entries were picked first, then a sample of the others. The call rests on the fitted dose curve; in most records, active means well fitted inhibition curve with a large enough effect; inconclusive means small, poorly fitted or top-dose-only effect, or another doubt; inactive means no such curve, though single readings can be large or run the other way. Where the call is inconclusive, the potency comes from a doubtful curve fit.

Target: DNA polymerase eta (Homo sapiens) (UniProt Q9Y253)
Experiment: qHTS for Inhibitors of Polymerase Eta
Conditions: recombinant Pol eta, fluorescent DNA replication assay; series mostly up to 114 µM
Summary of the method: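 Pol eta at 10 nM preincubated with compounds 15 min at room temperature; reaction started with fluorescent substrate (50 nM final) and read kinetically at 0 and 10 min.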
Potency means the concentration at half of the fitted maximal effect; tags describe the fitted curve by direction and shape.

UniProt Q9Y253, sequence (Q9Y253 whole entry, looked up): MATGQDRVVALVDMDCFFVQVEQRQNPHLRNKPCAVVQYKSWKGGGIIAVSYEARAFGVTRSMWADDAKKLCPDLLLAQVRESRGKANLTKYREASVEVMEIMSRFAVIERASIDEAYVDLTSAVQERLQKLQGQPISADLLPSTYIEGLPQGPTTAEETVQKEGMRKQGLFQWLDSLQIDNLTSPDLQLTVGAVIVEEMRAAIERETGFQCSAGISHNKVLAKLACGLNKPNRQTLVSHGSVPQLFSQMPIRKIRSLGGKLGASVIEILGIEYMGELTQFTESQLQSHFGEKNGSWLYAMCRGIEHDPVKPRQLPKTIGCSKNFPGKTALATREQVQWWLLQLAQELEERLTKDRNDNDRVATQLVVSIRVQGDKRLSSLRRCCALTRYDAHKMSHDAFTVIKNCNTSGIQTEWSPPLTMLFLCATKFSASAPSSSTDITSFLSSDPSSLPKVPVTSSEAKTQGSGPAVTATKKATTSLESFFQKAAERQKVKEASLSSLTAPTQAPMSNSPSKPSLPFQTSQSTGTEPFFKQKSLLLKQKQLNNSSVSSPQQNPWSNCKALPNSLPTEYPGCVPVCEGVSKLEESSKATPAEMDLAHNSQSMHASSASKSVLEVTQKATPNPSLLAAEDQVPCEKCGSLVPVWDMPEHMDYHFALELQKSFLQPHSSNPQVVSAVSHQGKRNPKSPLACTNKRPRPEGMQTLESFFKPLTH

SMILES | Potency
O=c1[nH]c(=O)n(CCC2=CCCCC2)c(O)c1C=NCCN1CCNCC1 | inconclusive: 35.5 µM [inhibitor, partial curve, poor fit]
CCN(CC)c1ccc(N=Cc2c(O)n(Cc3ccco3)c(=O)[nH]c2=O)cc1 | inactive
CC(=O)Nc1ccc(N=Cc2c(O)n(Cc3ccco3)c(=O)[nH]c2=O)cc1 | inconclusive: 56.2 µM [inhibitor, partial curve, poor fit]
Cc1cccc(OCCn2cccc2/C=C2/C(=O)NC(=O)N(Cc3ccco3)C2=O)c1 | active: 22.4 µM
COc1cc(/C=C/C(=O)c2c(O)n(CCc3ccccc3)c(=O)[nH]c2=O)ccc1O | inconclusive: 25.1 µM [inhibitor, full curve, poor fit]
Cc1cc2n(n1)C(c1cc(C(C)(C)C)c(O)cc1O)Nc1ccccc1-2 (centres undefined) | inconclusive: 100 µM [inhibitor, partial curve, poor fit]
C[C@@H]1C[C@@H]2O[C@H]2/C=C\C=C\C(=O)Cc2c(Cl)c(O)cc(O)c2C(=O)O1 | active: 10 µM
Cc1cc(O)c2c(c1)C(=O)c1cc(O)cc(O)c1C2=O | inactive and inconclusive: 15.8 µM [inhibitor, partial curve]
O=C1NC(=O)C(=Cc2ccc(-c3ccc(F)cc3O)o2)C(=O)N1 | active: 70.8 µM
CN1C(=O)C(=Cc2ccc(SC3CCCCC3)o2)C(=O)N(C)C1=O | active: 22.4 µM
COc1ccc(CCn2c(O)c(C=NCc3ccc4c(c3)OCO4)c(=O)[nH]c2=O)cc1OC | inconclusive: 22.4 µM [inhibitor, full curve, poor fit]
Cn1cccc1/C=C1/C(=O)NC(=S)N(Cc2ccc(F)cc2)C1=O | active: 12.6 µM
CCCCC(=O)N/N=C/c1c(O)n(Cc2ccco2)c(=O)[nH]c1=O | inconclusive: 14.1 µM [inhibitor, partial curve, poor fit]
COC12C(COC(N)=O)C3=C(C(=O)C(C)=C(N)C3=O)N1CC1C2N1C (centres undefined) | active: 50.1 µM
COc1ccc(Cn2c(O)c(/C=C3/C=CC=N3)c(=O)[nH]c2=O)cc1 | inconclusive: 35.5 µM [inhibitor, full curve]
COC12CCC3(CC1C(C)(O)C(C)(C)C)[C@H]1Cc4ccc(O)c5c4[C@@]3(CCN1CC1CC1)C2O5 (some centres undefined) | inconclusive: 79.4 µM [inhibitor, partial curve, poor fit]
O=C1NC(=O)N(Cc2ccco2)C(=O)/C1=C/C=C/c1ccco1 | active: 3.98 µM
CC(C)c1ccc(-n2c(O)c(/C=N/NC(=O)c3ccncc3)c(=O)[nH]c2=O)cc1 | inconclusive: 39.8 µM [inhibitor, partial curve, poor fit]
CCS(=O)(=O)N1N=C(c2cccc(NS(C)(=O)=O)c2)CC1c1ccccc1 (centres undefined) | active: 44.7 µM
CC[n+]1c(-c2ccccc2)c2cc(N)ccc2c2ccc(N)cc21 | active: 4.47 µM
O=[N+]([O-])c1cc(S(=O)(=O)c2ccc(O)c([N+](=O)[O-])c2)ccc1O | active: 2.82 µM
COC(=O)C1=C(c2ccc3ccccc3c2)C[C@@H]2CC[C@H]1N2C(=O)NCc1ccco1 | active: 35.5 µM
COc1ccc(C(=O)O)cc1OC | inactive

SMILES | Potency
CCN(CCCl)c1cc(CN(C)C)cc(NC(=O)c2ccc(C(=O)Nc3cc(CN(C)C)cc(N(CC)CCCl)c3)cc2)c1 | active: 11.2 µM
O=C1NC(=O)N(Cc2ccco2)C(=O)/C1=C\c1cccn1CCOc1ccc(Cl)cc1 | active: 14.1 µM
Cc1cc(/C=C2\C(=O)NC(=O)N(c3ccc(F)cc3)C2=O)c(C)n1-c1cccc(C(=O)O)c1 | active: 22.4 µM
CC(C)c1cc(Br)c(NC(=O)Nc2cccnc2)c(Br)c1 | inactive
CC(=O)Nc1cc(Cl)c(N=Cc2ccc(O)cc2O)cc1Cl | active: 79.4 µM
CCCCCn1c(=O)c(C(=O)Nc2ccccc2)c(O)c2ccccc21 | inactive
CN1C(=O)/C(=C/c2cccn2-c2ccc3ccccc3c2)C(=O)NC1=S | active: 3.98 µM
O=C(COC(=O)Cc1ccccc1)NNC(=O)c1ccc([N+](=O)[O-])cc1 | inconclusive: 89.1 µM [inhibitor, single point]
COC1C(O)C(C)OC(OC2C(Oc3cccc4c(O)c5c(=O)oc6ccc(C)c7c(=O)oc(c34)c5c67)OC(C)C(O)C2O)C1O (centres undefined) | active: 10 µM
O=C(CN1C(=O)S/C(=C\C=C\c2ccccc2)C1=O)Nc1ccccc1C(=O)O | active: 35.5 µM
O=C(NCc1ccccc1)c1cccn(Cc2cccc(Cl)c2)c1=O | inconclusive: 44.7 µM [inhibitor, partial curve, poor fit]
O=C1NC(=O)N(Cc2ccccc2Cl)C(=O)/C1=C/c1cccs1 | inconclusive: 50.1 µM [inhibitor, full curve, poor fit]
CC(C)c1ccc(N2C(=O)NC(=O)/C(=C/C=C/c3ccco3)C2=O)cc1 | active: 11.2 µM
O=C(Cn1c(=O)oc2cc(S(=O)(=O)N3CCCC3)ccc21)Nc1cccc(C(F)(F)F)c1 | inconclusive: 20 µM [inhibitor, partial curve, poor fit]
CCC(C)N1C(=O)/C(=C\c2cc3c4c(c2)CCCN4CCC3)C(=O)NC1=S (centres undefined) | inconclusive: 39.8 µM [inhibitor, full curve]
Cc1cc(/C=C2\C(=O)NC(=O)N(c3ccccc3F)C2=O)c(C)n1-c1cc(C(=O)O)cc(C(=O)O)c1 | active: 3.16 µM
Cc1ccc(NC(=O)c2ccc(C)c(S(=O)(=O)N3CCCCC3)c2)nc1 | inconclusive: 3.98 µM [inhibitor, partial curve, poor fit]
O=C1NC(=O)N(CCc2ccc(F)cc2)C(=O)/C1=C/C=C/c1ccccc1 | active: 50.1 µM
Cc1cccc(OP(=O)(Nc2ccc(F)cc2)Oc2cccc(C)c2)c1 | inconclusive: 89.1 µM [inhibitor, single point]
C=CCN1C(=O)NC(=O)/C(=C/c2cc3c4c(c2)CCCN4CCC3)C1=O | active: 44.7 µM
NC(N)=N/N=C/c1ccc(N2CCOCC2)cc1 | inconclusive: 79.4 µM [inhibitor, partial curve, poor fit]
O=C1NC(=S)NC(=O)C1=Cc1ccc(Br)s1 | active: 22.4 µM
Cc1cc(=O)oc2cc3c(cc12)CCCN3 | inactive

SMILES | Potency
COc1cccc(N2C(=O)NC(=O)/C(=C\c3cn(C)c4ccccc34)C2=O)c1 | inconclusive: 89.1 µM [inhibitor, partial curve, poor fit]
O=C(O)c1sccc1Oc1ccc(F)cc1[N+](=O)[O-] | inconclusive: 15.8 µM [inhibitor, full curve]
CN1C(=O)/C(=C/C=C/c2ccco2)C(=O)NC1=S | active: 5.62 µM
CN1CCN(c2ccc(N)c(N3CCN(C)CC3)c2)CC1 | inconclusive: 31.6 µM [inhibitor, partial curve, poor fit]
COc1ccc(OC(=O)N(C)C[C@@H]2OCc3cnnn3CCCC(=O)N([C@@H](C)CO)C[C@@H]2C)cc1 | inactive
O=C1NC(=O)C(=Cc2ccc(SC3CCCCC3)o2)C(=O)N1 | active: 20 µM
Cc1cc(C=C2C(=O)N(C)C(=S)N(C)C2=O)c(C)n1-c1ccncc1 | active: 35.5 µM
C[N+]1(C)C2CC[C@H]1CC(OC(=O)C(CO)c1ccccc1)C2 (some centres undefined) | inactive
COc1ccc(CN2C(=O)NC(=O)/C(=C/c3ccoc3)C2=O)cc1 | active: 20 µM
CCc1c(C(=O)OC)ncc2[nH]c3cc(OC)c(OC)cc3c12 | inconclusive: 22.4 µM [inhibitor, partial curve]
O=C1NC(=O)N(c2ccc(F)cc2)C(=O)/C1=C/c1ccc2c(c1)CCCN2Cc1ccccc1 | active: 20 µM
CC1=CC(C)CC(C)OC(=O)CC(c2ccc(O)cc2)NC(=O)C(Cc2c(Br)[nH]c3ccccc23)N(C)C(=O)C(C)NC(=O)C(C)C1 (centres undefined) | inconclusive: 50.1 µM [inhibitor, partial curve, poor fit]
N#CC(C#N)=Cc1ccc([N+](=O)[O-])c(O)c1 | inconclusive: 28.2 µM [inhibitor, partial curve]
O=C1C=C(N2CC2)c2ccccc2C1=O | active: 8.91 µM
O=C1CC(c2ccc(Br)cc2)c2c(c3ccccc3oc2=O)O1 (centres undefined) | inactive
COCOC1CCC2C3CCC4=CC(=O)CCC4=C3C=CC12C (centres undefined) | inconclusive: 20 µM [inhibitor, full curve, poor fit]
O=C(CN1CC=C(c2ccccc2)CC1)NC(=O)NCc1ccco1 | inconclusive: 20 µM [inhibitor, partial curve]
CN(C)/C=C(\C=[N+](C)C)c1[nH]ncc1[N+](=O)[O-] | inactive
CCN(CC)C(=O)c1ccc2c(c1)C1C(Cl)C(Sc3ccccc3[N+](=O)[O-])CC1C(C(=O)O)N2 (centres undefined) | active: 17.8 µM
CCOc1cccc(CNCCc2c(C)[nH]c3ccc(OC(F)(F)F)cc23)c1O | inconclusive: 70.8 µM [inhibitor, partial curve, poor fit]
CCOC(=O)c1c(/N=C/c2c(O)n(-c3cccc(C)c3)c(=O)[nH]c2=O)sc2c1CCCC2 | inconclusive: 25.1 µM [inhibitor, partial curve, poor fit]
Cc1ccc(-n2nc(C)c3c2NC(=O)CSC3c2ccc3c(c2)OCO3)cc1 (centres undefined) | inconclusive: 15.8 µM [inhibitor, full curve, poor fit]
N/C(=N\N=C/c1ccc(-c2ccc(O)c(C(=O)O)c2)o1)N[N+](=O)[O-] | active: 4.47 µM
